# Data reported in PubChem BioAssay AID2147 (National Center for Advancing Translational Sciences (NCATS), 2009).
# Screen size: about 230,000 compounds; about 3,600 (1.6%) were called active. Inconclusive results, whose numbers are uncertain, are shown with a selection of clear calls. Calls follow the shape of the dose curve; as a rule, active = well fitted inhibition curve with a large enough effect (not every such curve was filed as active); inconclusive = small, poorly fitted or top-dose-only effect, or another doubt; inactive = no such curve, though single readings can be large or run the other way. Where the call is inconclusive, the potency comes from a doubtful curve fit.
# Biological target: Lysine-specific demethylase 4E (Homo sapiens) (UniProt B2RXH2)
# Test: qHTS Assay for Inhibitors of Human Jumonji Domain Containing 2E (JMJD2E)
# Conditions: JMJD2E catalytic domain, FDH-coupled NADH fluorescence (FDH is formaldehyde dehydrogenase); series mostly up to 57.1 µM; activity change, negative = inhibition: at the top concentration
# Also: nearly all actives have a fitted effect of over 50% in size.
# 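For activity change, negative = inhibition in this document: 0% = wells with enzyme and -100% = buffer wells without enzyme.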
# Potency is read from the fitted curve at half-maximal effect; tags tell the direction and shape of the fitted curve.
# Sequence of UniProt B2RXH2 (B2RXH2 whole entry, looked up, the tested form may be a part): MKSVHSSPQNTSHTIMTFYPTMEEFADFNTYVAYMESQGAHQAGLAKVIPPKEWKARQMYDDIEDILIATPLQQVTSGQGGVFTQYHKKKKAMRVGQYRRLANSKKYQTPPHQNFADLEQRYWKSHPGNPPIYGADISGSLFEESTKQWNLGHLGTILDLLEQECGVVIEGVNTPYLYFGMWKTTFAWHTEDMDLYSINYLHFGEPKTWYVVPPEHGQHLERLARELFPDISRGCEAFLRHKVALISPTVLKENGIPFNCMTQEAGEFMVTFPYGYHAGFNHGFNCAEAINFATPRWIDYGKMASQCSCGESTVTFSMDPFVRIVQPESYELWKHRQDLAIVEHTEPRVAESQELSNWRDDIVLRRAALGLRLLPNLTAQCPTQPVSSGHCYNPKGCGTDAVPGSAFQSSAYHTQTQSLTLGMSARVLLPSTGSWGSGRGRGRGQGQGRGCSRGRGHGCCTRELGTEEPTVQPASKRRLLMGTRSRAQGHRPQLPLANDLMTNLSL
Compound,Potency,"activity change, negative = inhibition"
Cc1cnc(-c2nnc(N(C)C(=O)C3CCCO3)s2)cn1 (stereo not drawn),"inconclusive: 25.1 µM [inhibitor, partial curve]",–
N#C/C(=C\c1c[nH]c2ccccc12)C(N)=O,–,inactive: -13.3%
CC(C)CNC(=O)c1ccccc1NC(=O)CN(c1ccccc1)S(=O)(=O)N(C)C,"inconclusive: 39.8 µM [inhibitor, single point]",–
Cc1ccc2cc(C#N)c(NCCNC(=O)C3CCC3)nc2c1C,"inconclusive: 31.6 µM [inhibitor, partial curve]",–
COc1cc(-c2nc3ccccn3c2NCC2CCCO2)ccc1O (stereo not drawn),"inconclusive: 28.2 µM [inhibitor, partial curve]",–
COc1cccc(NC(=O)N2CCN(c3ccc(C(F)(F)F)cn3)CC2)c1,"inconclusive: 39.8 µM [inhibitor, single point]",–
CC1CCCCN1S(=O)(=O)c1ccc(C(=O)Nc2nnc(-c3cccs3)o2)cc1 (stereo not drawn),"inconclusive: 39.8 µM [inhibitor, single point]",–
COc1ccc2cc(OC)c(C(=O)N3CCOCC3)cc2c1,"inconclusive: 28.2 µM [inhibitor, partial curve]",–
CSCc1nc2sc(C(=O)Nc3nc(C)cs3)c(C)c2c(=O)[nH]1,"inconclusive: 12.6 µM [inhibitor, partial curve]",–
CCOc1ccc(S(=O)(=O)/N=C(/c2ccccc2)N(C)C)cc1,–,inactive: 5.12%
O=C(O)c1ccc(N2CCCCC2)cc1,–,inactive: -1.69%
Oc1ccc(NCc2ccccc2OCc2ccccc2F)cc1,active: 5.01 µM,–
Cc1ccc(OCCCCn2cnc3ccccc32)c(C)c1,"inconclusive: 39.8 µM [inhibitor, single point]",–
CC(/C=N/NC(=O)c1cc(-c2ccc(C)s2)[nH]n1)=C\c1ccccc1,"inconclusive: 39.8 µM [inhibitor, single point]",–
CC(=O)Nc1ccc(NC(=O)C/C(C)=N/NC(N)=S)cc1,"inconclusive: 25.1 µM [inhibitor, single point]",–
Cc1ccc(/C=C/C(=O)Nc2ccc([N+](=O)[O-])c(NC(=O)/C=C/c3ccc(C)o3)c2)o1,"inconclusive: 20 µM [inhibitor, single point]",–
O=C(NCCc1ccncc1)Nc1ccc(Cl)cc1,"inconclusive: 35.5 µM [inhibitor, single point]",–
CCOC(=O)c1[nH]c2ccc(OC)cc2c1NC(=O)CN1CCSCC1,"inconclusive: 31.6 µM [inhibitor, partial curve]",–
CCOC(=O)C1CCCCN1Cc1cccc(F)c1 (stereo not drawn),"inconclusive: 31.6 µM [inhibitor, single point]",–
COC(=O)c1ccccc1NC(=O)c1ccc(-c2ccc(Br)cc2)o1,active: 3.55 µM,–
COc1ccc(-c2c3c(=O)n(C)c(=O)n(C)c3cn2C2CCCCC2)cc1,"inconclusive: 25.1 µM [inhibitor, partial curve]",–
O=C(CSc1ncn[nH]1)Nc1ccc(Cl)c(S(=O)(=O)N2CCOCC2)c1,"inconclusive: 31.6 µM [inhibitor, single point]",–
CCCCC(=O)Nc1c(C)cc(C)cc1Cl,–,inactive: -2.86%

Compound,Potency,"activity change, negative = inhibition"
COc1ccc(C(=O)NC(=S)Nc2ccccc2[N+](=O)[O-])cc1OC,–,inactive: -13.4%
O=Nc1c2ccc[nH]c-2c2ccc([N+](=O)[O-])cc12,"inconclusive: 8.91 µM [inhibitor, single point]",–
C#CC(C)(CC)NC(=O)c1cc2cccc(CC=C)c2oc1=O (stereo not drawn),"inconclusive: 22.4 µM [inhibitor, partial curve]",–
CC(C)CCOC(=O)C1C(c2ccccc2)C(C(=O)O)C1c1ccccc1 (stereo not drawn),–,inactive: 4.77%
CC(C)(C)N1C(=O)Cc2c1nc(N)c1c(N)nc(N3CCCCC3CO)c(C#N)c21 (stereo not drawn),"inconclusive: 11.2 µM [inhibitor, partial curve]",–
Cc1cc2cc(CN(Cc3cccs3)C(=S)NCC3CCCO3)c(=O)[nH]c2cc1C (stereo not drawn),"inconclusive: 39.8 µM [inhibitor, single point]",–
O=C(/C=C/c1ccccc1[N+](=O)[O-])NC1CCCC1,–,inactive: -4.85%
COc1ccc2nc3sc(C(=O)N4CCN(C)CC4)cc3cc2c1,"inconclusive: 28.2 µM [inhibitor, partial curve]",–
COC1C=CO[C@@]2(C)Oc3c(C)c(O)c4c(O)c(c5c(nc6cc(C)ccn65)c4c3C2=O)NC(=O)/C(C)=C\C=CC(C)C(O)[C@@H](C)C(O)C(C)[C@@H](OC(C)=O)C1C (stereo partly drawn),"inconclusive: 28.2 µM [inhibitor, single point]",–
O=C(c1cc(-c2ccco2)on1)N1CCN(C(c2ccccc2)c2ccccc2)CC1,"inconclusive: 3.55 µM [inhibitor, full curve]",–
COc1cc2nc(N3CCN(C(=O)C4CCCO4)CC3)nc(N)c2cc1OC (stereo not drawn),active: 28.2 µM,–
COc1ccc(Cl)cc1/C=C(\C#N)C(N)=O,"inconclusive: 28.2 µM [inhibitor, single point]",–
Cc1ccccc1OCc1nc(-c2ccc(NC(=O)c3ccco3)cc2)no1,"inconclusive: 31.6 µM [inhibitor, single point]",–
CCCn1nc(NC(=O)c2ccccn2)c2cc3cc(C)ccc3nc21,"inconclusive: 1 µM [inhibitor, full curve]",–
Cc1ccc(Cn2cc(S(=O)(=O)c3ccc(C(C)C)cc3)c(=O)c3cc4c(cc32)OCO4)cc1,"inconclusive: 28.2 µM [inhibitor, partial curve]",–
Cc1cnc(-c2nnc(N(C)C(=O)C3CCOC3)s2)cn1 (stereo not drawn),"inconclusive: 31.6 µM [inhibitor, partial curve]",–
CO/N=C(\C(=O)O)c1csc(NN=C(C)C)n1,–,inactive: 1.7%
CC/C(C)=N\Nc1nc(-c2cc3cc(OC)ccc3oc2=O)cs1,"inconclusive: 31.6 µM [inhibitor, single point]",–
COc1ccc(CCN(Cc2cc3cc(C)ccc3[nH]c2=O)C(C)=O)cc1OC,"inconclusive: 25.1 µM [inhibitor, single point]",–
CO/N=C/CC(=O)c1cnc(-c2ccc(Cl)cc2)s1,"inconclusive: 31.6 µM [inhibitor, single point]",–
COCCn1c(C)cc(C2=NNC(=NC3CC3)SC2)c1C,–,inactive: -5.86%
Nc1c(C(=O)NCc2ccc3c(c2)OCO3)c2nc3ccccc3nc2n1CCCN1CCOCC1,"inconclusive: 12.6 µM [inhibitor, partial curve]",–
CCCN1CCN(C(c2cc3cc(OCC)ccc3[nH]c2=O)c2nnnn2C2CCCCC2)CC1 (stereo not drawn),"inconclusive: 28.2 µM [inhibitor, partial curve]",–

Compound,Potency,"activity change, negative = inhibition"
COC(=O)c1nc2nc(-c3cccs3)cc(C(F)(F)F)n2n1,"inconclusive: 25.1 µM [inhibitor, partial curve]",–
COc1cccc2cc(-c3ccccc3)c(=O)oc12,"inconclusive: 22.4 µM [inhibitor, single point]",–
Cc1ccc(-c2n[nH]c(=S)n2C)cc1,–,inactive: -10.8%
O=C(NCc1ccc2c(c1)OCO2)Nc1cccc2ccccc12,"inconclusive: 12.6 µM [inhibitor, partial curve]",–
CCn1c(SCC(=O)N2CCCC(C)C2)nnc1-c1ccc(S(=O)(=O)N2CCN(C)CC2)cc1 (stereo not drawn),"inconclusive: 31.6 µM [inhibitor, partial curve]",–
O=C1CC(N2CCOCC2)=NN1c1ccc([N+](=O)[O-])cc1,"inconclusive: 28.2 µM [inhibitor, single point]",–
Oc1ccc(O)cc1,"inconclusive: 14.1 µM [inhibitor, partial curve]",–
O=C(Cc1ccc(Cl)cc1)c1c[nH]c(C(=O)NCc2cccnc2)c1,–,inactive: 2.02%
O=C(/C=C/c1ccccc1[N+](=O)[O-])N1CCN(C(=O)c2ccco2)CC1,–,inactive: 3.27%
O=C(Nc1nc2nccc(-c3ccccc3)n2n1)C(Cl)(Cl)Cl,"inconclusive: 25.1 µM [inhibitor, partial curve]",–
COC(=O)C(F)(F)Sc1c(C)[nH]c2ccccc12,"inconclusive: 35.5 µM [inhibitor, single point]",–
CCCCCC(=O)Nc1ccc2oc(-c3cncc(Br)c3)nc2c1,"inconclusive: 22.4 µM [inhibitor, partial curve, poor fit]",–
O=C(NCCCn1ccnc1)C(=O)NCC1OCCCN1S(=O)(=O)c1ccc(F)cc1 (stereo not drawn),–,inactive: 5.94%
COc1cccc(-n2c(CN3CCN(c4ccccn4)CC3)nc3ccc([N+](=O)[O-])cc3c2=O)c1,"inconclusive: 28.2 µM [inhibitor, single point]",–
COC(=O)c1cc(N2C(=O)C3C(C2=O)C2(C)C=CC3(C)O2)ccc1Cl (stereo not drawn),–,inactive: 1.8%
C/C(=N\NC(=O)c1cccc(N/N=C(\C)c2cc(O)ccc2O)c1)c1cc(O)ccc1O,active: 25.1 µM,–
CCCCN(CC)S(=O)(=O)c1ccc(C(=O)Nc2nnc(COC)o2)cc1,"inconclusive: 39.8 µM [inhibitor, single point]",–
Cc1ccc(NS(=O)(=O)c2cc(-c3n[nH]c(=O)c4ccccc34)ccc2C)cc1,"inconclusive: 39.8 µM [inhibitor, single point]",–
CCOC(=O)C1(Cc2cccc(F)c2)CCN(C(=O)c2ccoc2C)CC1,–,inactive: 2.99%
CC1=CC(C)(C)n2c(O)c(N=N)c3c(C)c(C)cc1c32,"inconclusive: 39.8 µM [inhibitor, single point]",–
Cc1onc(-c2c(F)cccc2Cl)c1C(=O)Nc1c(C)n(C)n(-c2ccccc2)c1=O,"inconclusive: 28.2 µM [inhibitor, partial curve]",–
CCN(CC)c1ccc(C2C(C(=O)OCCOC)=C(C)NC3=C2C(=O)CC(C)(C)C3)cc1 (stereo not drawn),"inconclusive: 28.2 µM [inhibitor, partial curve]",–
